# Source: article PMC12040169 (PLOS Biology, 2025)
# Some of the results follow.
# System: T1, C. trachomatis L2/434/Bu expressing GFP (CTL2-GFP)
# T1 construct: L2/434/Bu GFP intracellular growth in HeLa cells
# Parameters: species or system HeLa; C. trachomatis total inclusion area by high-content imaging, normalised to DMSO
# Settings: total inclusion area; 28.5 h, 10 µM; inhibitor
# In short: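 Host cell viability was gauged from Hoechst-stained nuclei counts, while chlamydial growth was taken from total inclusion area and inclusion number per well. Cells were fixed and imaged by high-content microscopy once bulk GFP and resorufin fluorescence had been measured.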
row,SMILES,% of control remaining
1,O=C(O)C1CC(O)CN1S(=O)(=O)c1ccc(Cl)cc1 (stereo not drawn) [CBK266106],81.2409
2,CCN(CC)CCOC(=O)C1(c2ccccc2)CCOc2ccccc21 (stereo not drawn) [CBK009850C],102.633
3,CC(=O)OCC(=O)Nc1ccc2cc(Br)cnc2n1 [CBK063311],87.5038
4,COc1ccc(-c2nc(-c3cccs3)cnc2N)cc1OC [CBK063981],136.396
5,CCc1nc2ccc(C(=O)NC3CCN(C)CC3)cn2c1N(C)C=O [CBK146594],76.5446
6,CCOC(=O)c1c(NC(=O)CSc2nnc3ccccn23)sc2c1CCCCC2 [CBK265685],116.559
7,CC(NCC(=O)N1c2ccccc2NC(=O)CC1C)c1ccc(-c2ccccc2)cc1 (stereo not drawn) [CBK295155],73.7145
8,OCCN1CCN(c2ncnc3scc(-c4ccccc4)c23)CC1 [CBK287582],115.398
9,O=C(C[C@@H]1CCNC[C@@H]1Cc1cc(-c2ccccc2)on1)Nc1cccc(O)c1 [CBK289149],105.067
10,CC(=O)N(C)c1nc(-c2cccc(N(C)C)c2)ccc1C(=O)Nc1ccc(C(F)(F)F)cc1 [CBK076623],49.0744
11,COc1ccc2oc(C(=O)NCCN3CCOCC3)c(C)c2c1OC [CBK269913C],95.5556
12,O=C(Nc1ncc(Cl)s1)C1CC(=O)N(C2CC2)C1 (stereo not drawn) [CBK175551],27.0566
13,N#Cc1ccccc1/C=N/NC(=O)COc1ccc(-c2cc(-c3ccccc3)c3cc(Cl)ccc3n2)cc1 [CBK263337],114.697
14,COC(=O)c1sccc1NS(=O)(=O)c1ccc2ccccc2c1 [CBK004500],83.2439
15,CCc1nn(CC(=O)NC(C)C)c(=O)c2cc3ccsc3n12 [CBK284131],89.2827
16,Cc1c(S(=O)(=O)Nc2ccc(C(=O)c3ccccc3)cc2)cnn1-c1ccccc1 [CBK051034],107.626
17,CCOC(=O)Nc1ccc2c(c1)N(C(=O)CN(C)C)c1ccccc1S2 [CBK261290C],73.6961
18,COc1ccc(-c2ccc(CCC(=O)O)n2CCc2ccccc2)cc1 [CBK265929],60.3693
19,O=C(C1CCCC1)N1CCCC(c2nccnc2-c2cccc(C(F)(F)F)c2)C1 (stereo not drawn) [CBK286221],84.6151
20,COc1ccccc1Cc1cccc(C2CCN(CC(=O)Nc3nccs3)CC2)n1 [CBK286227],117.789
21,O=C(CSc1ccccn1)Nc1ccc2ccccc2c1 [CBK263860],105.577

row,SMILES,% of control remaining
1,CC(Cc1cccs1)C(=O)N1CCn2cnnc2C1 (stereo not drawn) [CBK282109],94.0714
2,O=C(Nc1ccc2ncccc2c1)c1ccc(F)cc1Cl [CBK159796],83.423
3,O=[N+]([O-])c1cc(S(=O)(=O)n2ccc3ccccc32)ccc1N1CCNCC1 [CBK024593C],69.3895
4,Cc1cc(=O)n2ncnc2n1COCCO [CBK262919],101.57
5,Clc1ccc2nc(-c3ccccn3)[nH]c2c1 [CBK000116],6.069
6,COc1ccc(-n2cc(-c3ccc(C(F)(F)F)cc3)nn2)cc1OC [CBK112952],80.8102
7,O=C(NCc1n[nH]c(=O)c2ccccc12)Nc1ccc(F)cc1 [CBK287744],118.837
8,CCc1n[nH]c(C2CN(Cc3nc4c(F)cccc4[nH]3)CCO2)n1 (stereo not drawn) [CBK304117],24.4681
9,c1ccc2cc(-c3cn4ccnc4c(Nc4ccc(N5CCOCC5)cc4)n3)ccc2c1 [CBK066359],67.6703
10,CCOC(=O)c1cnc(SC)nc1NCCc1c[nH]cn1 [CBK086623],93.0297
11,O=C(NCc1ccccn1)c1ccc(-n2ccnc2)c(-n2cccc2)c1 [CBK285347],111.291
12,O=[N+]([O-])c1ccc(C(O)CNC(=S)Nc2ccccc2)cc1 (stereo not drawn) [CBK261086],80.9023
13,O=C(CC1CS(=O)(=O)CC1CC(=O)Nc1cccc(Cl)c1Cl)Nc1cccc(Cl)c1Cl (stereo not drawn) [CBK262404],108.081
14,Cc1nn(CC(=O)N(C)Cc2cnccn2)c(=O)c2ccccc12 [CBK304356],136.975
15,Nc1ncc(-c2cccc(F)c2)nc1-c1ccc(C(=O)N2CCOCC2)cc1 [CBK064131],90.7932
16,NC(=O)CN1CCN(CCc2ccccc2)CC1 [CBK126429],105.438
17,CCC(CN1CCN(C)CC1)NC(=O)C1(c2ccc(F)cc2)CC1 (stereo not drawn) [CBK282785],113.737
18,CC1(C)CC(NC(=O)C2CCN(S(C)(=O)=O)CC2)c2ccccc2O1 (stereo not drawn) [CBK304404],76.7101
19,FC(F)(F)c1cccc(Sc2cccc3ccccc23)n1 [CBK091449],75.7372
20,O=C(N[C@H]1C[C@H]2C(=O)Nc3ccc(-c4ccsc4)cc3C(=O)N2C1)c1ccccc1 [CBK289361],85.2246
21,O=C(Cn1ccc(=O)[nH]c1=O)Nc1ccc(OCC(F)(F)F)cc1 [CBK305879],32.8548

row,SMILES,% of control remaining
1,Nc1ncc(-c2ccc(C(=O)N3CCOCC3)cc2)cc1C(=O)NCc1c(F)cccc1F [CBK158569],90.74
2,COc1ccc(CNC(=O)C2CCCN(S(C)(=O)=O)C2)cc1OC (stereo not drawn) [CBK299830],78.0398
3,CCCC(=O)Nc1ccc(-c2csc(N3CCCC3=O)n2)cc1 [CBK306088],56.9738
4,COc1ccc(Oc2nccnc2N2CCN(Cc3ccc4c(c3)OCO4)CC2)cc1OC [CBK083048T],96.7989
5,O=c1[nH]nc2n1-c1ccccc1OC2 [CBK010583],60.8775
6,CN1CCCC(C(=O)Nc2cnc(-c3cccc(C(F)(F)F)c3)c(-c3cccnc3)n2)C1 (stereo not drawn) [CBK036787],87.9281
7,COc1ccc(N2CCN(c3nc(NCCO)nc(OC)n3)CC2)cc1 [CBK265478],92.9603
8,O=C(O)c1cccc(CSc2nnc(Cc3ccccc3)o2)c1 [CBK268060],108.116
9,CC1(C)CC(NCC(O)COc2cc(C(C)(C)C)c(O)c(C(C)(C)C)c2)CC(C)(C)N1 (stereo not drawn) [CBK264564],104.468
10,CN1CCC[C@H]1c1nc(-c2ccc(-n3ccnc3)nc2)no1 [CBK288893],134.7
11,Cc1c(C(=O)NCCCN2CCOCC2)oc2c1C(=O)CCC2 [CBK270207],100.054
12,O=C(Cc1ccccc1)NN1C(=O)/C(=C/c2ccccc2C(=O)O)SC1=S [CBK262975],100.93
13,Cc1ncsc1CCOc1cc(NC(C)C)ncn1 [CBK115884],98.0726
14,CC[C@H]1C[N@@]2CC[C@H]1C[C@@H]2CNS(=O)(=O)c1cccc(C#N)c1 [CBK288746],99.946
15,O=C(O)c1ccccc1C1SCCCS1 [CBK016303],106.027
16,O=C(CCc1ccco1)N1CCCCC1c1nc2ccccc2[nH]1 (stereo not drawn) [CBK283711],97.9929
17,CCC(CC)C(=O)N(C)c1c(C)nc2ccc(C(=O)N3CCN(S(=O)(=O)CC)CC3)cn12 [CBK146524],92.5579
18,O=S(=O)(Nc1nnn[nH]1)c1ccc(N2CCOCC2)nc1 [CBK062385],75.7766
19,Cc1ccc2[nH]c(Nc3nc(C)cc(C)n3)nc2c1 [CBK263634],107.905
20,CN(Cc1ccccc1)c1nccnc1-c1ccc(F)c(Cl)c1 [CBK037997],120.953
21,CCc1nnc(NS(=O)(=O)c2ccc(NCc3cc(Cl)ccc3O)cc2)s1 [CBK200051],67.4916

row,SMILES,% of control remaining
1,O=C(c1ccccc1F)N1CCCC(c2n[nH]c3ncccc23)C1 (stereo not drawn) [CBK282672],129.414
2,Cc1cc(C)c2cc(CNC3CC3)c3nn(C)c(=O)n3c2c1 [CBK283186],106.373
3,CCc1cc(Br)ccc1S(=O)(=O)NCCC#N [CBK044760],81.8686
4,c1cc(-c2nccnc2OC2CCCCC2)ccn1 [CBK106727],97.764
5,NC(=O)NC(CC(=O)N1CCN(c2nccs2)CC1)c1cccc(Br)c1 (stereo not drawn) [CBK304548],72.8276
6,CCC(=O)NC(c1ccc(OC)c(OC)c1)c1ccc2cccnc2c1O (stereo not drawn) [CBK293926],83.0139
7,Clc1ccc(COc2cccc3c2CCCC3)cn1 [CBK002634],90.1426
8,Cc1ccc(-c2cc(C(=O)NC3CN4CCC3CC4)[nH]n2)o1 (stereo not drawn) [CBK283276],92.9254
9,COc1ccc(CCNC(=O)c2cnoc2-c2ccc(C)cc2)cc1 [CBK153731],96.5811
10,CS(=O)(=O)c1ccc(-n2nnnc2CNC2(CO)CCCC2)cc1 [CBK304134],27.482
11,Nc1ncc(-c2ccc(Cl)cc2)c(C2CCCN(C(=O)Cc3c[nH]c4ccccc34)C2)n1 (stereo not drawn) [CBK285574],86.9012
12,CC1CCC(N(Cc2nnc(C(C)C)o2)CC2CCCO2)CC1 (stereo not drawn) [CBK305169],71.9758
13,CC1CCCCN1C(=O)Cn1cnc2c(Cl)cc(Cl)cc2c1=O (stereo not drawn) [CBK306149],73.5942
14,COc1ccccc1CC(C)NC(=O)c1csc(C(C)=O)c1 (stereo not drawn) [CBK282517],73.6785
15,Cc1nn(C)cc1-c1cncn1C(C)(C)CN1CCC(C)CC1 [CBK281740],114.78
16,CNC(=O)c1ccc(-c2cccc(Cl)c2Cl)nc1N1CCOCC1 [CBK106215],92.1065
17,N#CCCN(CCC#N)C(=O)CN1C(=O)c2ccccc2C1=O [CBK267100],111.842
18,Clc1ccc(COc2ccnc(N3CCCNCC3)n2)cc1Cl [CBK091550],53.0195
